This is an account of results in PMC4336329 (PLoS ONE, 2015).

Among all 310,000 compounds or so, about 14,000 (4.5%) showed an effect of 50% or more. Effects have a minus sign here. The list shows a part of the results.
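Further: peak tail current of the secondary pulse compared with the same well before compound.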

The target in the assay is human ether-à-go-go-related gene (hERG) potassium channel (human, UniProt Q12809). The assay can be described thus: primary screen, population patch clamp on CHO cells stably expressing hERG.
Chain of human ether-à-go-go-related gene (hERG) potassium channel (Q12809 whole entry, looked up): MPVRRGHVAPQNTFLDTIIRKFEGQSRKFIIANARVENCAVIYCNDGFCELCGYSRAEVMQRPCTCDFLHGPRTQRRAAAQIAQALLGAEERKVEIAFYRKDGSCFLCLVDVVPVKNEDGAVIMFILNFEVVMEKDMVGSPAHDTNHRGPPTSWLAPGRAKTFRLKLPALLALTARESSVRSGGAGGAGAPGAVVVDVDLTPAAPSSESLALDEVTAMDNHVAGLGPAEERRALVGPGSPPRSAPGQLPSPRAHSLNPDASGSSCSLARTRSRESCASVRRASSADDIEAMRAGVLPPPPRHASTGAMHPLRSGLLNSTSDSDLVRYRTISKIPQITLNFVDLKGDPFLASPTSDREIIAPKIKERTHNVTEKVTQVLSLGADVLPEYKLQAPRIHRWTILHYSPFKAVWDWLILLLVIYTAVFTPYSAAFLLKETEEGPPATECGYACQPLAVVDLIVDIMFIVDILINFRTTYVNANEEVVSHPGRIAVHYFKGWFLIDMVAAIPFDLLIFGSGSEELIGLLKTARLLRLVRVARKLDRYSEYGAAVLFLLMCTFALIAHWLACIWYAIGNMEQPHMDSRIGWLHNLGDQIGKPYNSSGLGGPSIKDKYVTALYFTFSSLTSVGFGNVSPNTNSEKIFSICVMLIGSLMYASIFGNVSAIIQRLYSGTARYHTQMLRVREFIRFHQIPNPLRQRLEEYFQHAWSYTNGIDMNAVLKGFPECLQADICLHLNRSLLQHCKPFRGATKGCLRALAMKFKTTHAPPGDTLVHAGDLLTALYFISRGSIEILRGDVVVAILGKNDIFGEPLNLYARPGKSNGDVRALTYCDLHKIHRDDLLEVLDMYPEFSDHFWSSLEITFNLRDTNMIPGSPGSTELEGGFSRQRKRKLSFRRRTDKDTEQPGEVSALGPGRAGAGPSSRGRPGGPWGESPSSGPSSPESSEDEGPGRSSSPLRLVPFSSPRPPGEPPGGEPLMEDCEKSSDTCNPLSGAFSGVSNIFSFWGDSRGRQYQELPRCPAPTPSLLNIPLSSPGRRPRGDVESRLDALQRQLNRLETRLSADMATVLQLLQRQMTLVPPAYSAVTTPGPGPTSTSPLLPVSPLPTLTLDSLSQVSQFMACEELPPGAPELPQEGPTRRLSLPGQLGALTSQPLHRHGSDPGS
For `CCOC(=O)c1cc(NC(=O)/C=C\C(=O)O)ccc1Cl`, the “hERG current change (%, negative = inhibition) at 10uM” value worked out at 7.2%.
Turning to `COc1ccc(/C=C(/NC(=O)c2ccccc2)C(=O)N/N=C/c2ccncc2)cc1`, the “hERG current change (%, negative = inhibition) at 10uM” value is reported as 9.78%.
The figure for `N/C(=N\OC(=O)C(c1ccccc1)c1ccccc1)c1ccncc1` is -26.5%.
The figure for `N#C/C(=C\c1cccc([N+](=O)[O-])c1)C(=O)NCC1CCCO1` (stereo not drawn) is -2.61%; for `CCc1ccc(NC2CC(=O)N(CCc3ccc(OC)c(OC)c3)C2=O)cc1` (stereo not drawn) it is -13.4%; for `Cc1cccc(C)c1OCCNC(=O)C(=O)NCc1ccco1` it is 9.93%.
Consider `Cc1c(N=Cc2c(O)n(CCc3ccc(F)cc3)c(=O)[nH]c2=O)c(=O)n(-c2ccccc2)n1C`, for which the “hERG current change (%, negative = inhibition) at 10uM” value is listed as -61.9%.
The figure for `O=C(CCc1nc2ccccc2c(=O)[nH]1)OCc1ccc(Cl)cc1Cl` is 2.87%; for `O=C(Nc1ccc(Br)cc1)C1CC(O)CN1C(=O)OCc1ccccc1` (stereo not drawn) it is 1.39%; for `Cc1ccc(S(=O)(=O)N2CCN(C(=O)c3cc(=O)[nH]c4ccccc34)CC2)c(C)c1` it is -22.9%.
In the case of `CC(C)c1ccc(NC(=O)NCc2ccc(F)cc2)cc1` it was 10.6%.
In the case of `O=C(CCNS(=O)(=O)c1cccs1)NCc1ccccc1`, the “hERG current change (%, negative = inhibition) at 10uM” value stood at 49.9%.
For `O=C(CSc1nc2c(cnn2-c2cccc(Cl)c2)c(=O)[nH]1)NCC1CCCO1` (stereo not drawn), the “hERG current change (%, negative = inhibition) at 10uM” value was 10.2%.
In the case of `O=C1CCCc2c1[nH]c1ccc(Cl)cc21` it was 7.86%; in that of `Cc1cc(Oc2nc3c(C)cccn3c(=O)c2/C=C(\C#N)S(=O)(=O)c2ccc(Cl)cc2)ccc1Cl`, -10.7%.
In the case of `COC(=O)CC1C(=O)NCCN1C(=O)CSc1nnnn1-c1ccc(OC)cc1` (stereo not drawn) it was 17.7%.
For the molecule `Cc1cccnc1NC(=O)CNC(=O)C12CC3CC(CC(C3)C1)C2`, the “hERG current change (%, negative = inhibition) at 10uM” value was 0.0801%.
Regarding `COc1ccc(N2CCN(c3ccc([N+](=O)[O-])nc3)CC2)cc1`, the “hERG current change (%, negative = inhibition) at 10uM” value was -36%.
Regarding `Cc1ccc(NC(=O)CCCc2nc3ccccc3s2)c(O)c1`, the “hERG current change (%, negative = inhibition) at 10uM” value is reported as -15.9%.
With `COc1cc(C2OC(=O)c3ccccc3S2)cc(OC)c1OC` (stereo not drawn), the “hERG current change (%, negative = inhibition) at 10uM” value is given as 11.5%.
Consider `CCn1nc(C)c(CN2CCC(n3nccc3NC(=O)c3ccc4c(c3)OCO4)CC2)c1C`, for which the “hERG current change (%, negative = inhibition) at 10uM” value is -4.09%.
As for `COc1cc(/C=C/C(=O)O)ccc1O`, the “hERG current change (%, negative = inhibition) at 10uM” value is -1.72%.
In the case of `COc1ccccc1CNC(=O)C1CCCN(S(=O)(=O)c2cccs2)C1` (stereo not drawn) it was 0.808%; in that of `COC(=O)C1C(=O)/C(=C(/C)N2CCCC2)C(=O)CC1(C)C` (stereo not drawn), 3.79%; in that of `COc1ccc(-c2csc(CCn3nc(C)cc3C)n2)cc1OC`, 4.85%.
For the molecule `CCCCN(CC)CCCNC(=S)Nc1ccc2nc(N3CCN(CC)CC3)cc(C)c2c1`, the “hERG current change (%, negative = inhibition) at 10uM” value is on record as -4.57%.
With `COc1ccc(NS(=O)(=O)c2ccc(-c3coc(C)n3)cc2)c(OC)c1`, the “hERG current change (%, negative = inhibition) at 10uM” value is reported as 18.1%.
The figure for `C(=N\n1cnnc1)/c1ccc2ncccc2c1` is -4.7%; for `CCOc1ccc(C(=O)CCC(=O)NNC(=O)c2ccccc2O)cc1` it is 14.7%; for `CN(C)S(=O)(=O)N1CCc2ccccc2C1` it is 2.94%.
Consider `COc1ccc(Cl)cc1NC(=O)CN(C)C(=O)c1sccc1-c1ccccc1`, for which the “hERG current change (%, negative = inhibition) at 10uM” value came out at 11.2%.
In the case of `COc1ccc(OC)c2[nH]c(=O)c(CCNS(=O)(=O)c3ccccc3)cc12`, the “hERG current change (%, negative = inhibition) at 10uM” value is given as 1.57%.
For `C=C1C(=O)O[C@H]2C1CC[C@@](C)(O)C13C=CC(C)(C21)C1(C3)C(=O)O[C@@H]2C3C(C)=CCC3[C@](C)(O)C[C@H](OC(C)=O)C21` (stereo partly drawn), the “hERG current change (%, negative = inhibition) at 10uM” value was determined as 2.81%.
For `NC(=O)c1ccsc1NC(=O)C1CCN(S(=O)(=O)c2cccs2)CC1`, the “hERG current change (%, negative = inhibition) at 10uM” value is listed as -52.4%.
For the molecule `O=C1CCCC/C1=N\Nc1ccc(OCc2ccccc2)cc1`, the “hERG current change (%, negative = inhibition) at 10uM” value is 5.78%.
In the case of `COc1ccc2ccccc2c1/C=N/NC(=O)c1nnn(-c2nonc2N)c1C(C)C` it was 16.7%; in that of `CCOC(=O)C1=C(C)N(CCCCCC(=O)O)C(=O)NC1c1ccccc1OC(=O)c1cccs1` (stereo not drawn), -35.8%.
For `CCOC(=O)c1ncn2c1C(=O)OC2(C)C`, the “hERG current change (%, negative = inhibition) at 10uM” value came to 12.6%.
Regarding `C=CCN=Cc1c(C)[nH]n(-c2ccccc2)c1=O`, the “hERG current change (%, negative = inhibition) at 10uM” value amounted to 4.17%.
In the case of `O=C(/C=C/c1ccc([N+](=O)[O-])cc1)N1CCN(Cc2ccccc2)CC1` it was -66.8%; in that of `CC1(C)C2CCC1(CS(=O)(=O)NC(CC(=O)O)c1cccc(Br)c1)C(=O)C2` (stereo not drawn), 17.7%; in that of `COc1cccc(OC)c1C(=O)OCC(=O)NCC(C)C`, 24.7%.
Consider `Cc1ccc(SCC(=O)NCC(C)C)cc1`, for which the “hERG current change (%, negative = inhibition) at 10uM” value is 9.35%.
On to `CCCc1ccc(C(C)NC(=S)NCc2ccc(F)cc2)cc1` (stereo not drawn), for which the “hERG current change (%, negative = inhibition) at 10uM” value was determined as 18.6%.
In the case of `CSCCC(NC(=O)COc1ccccc1)C(=O)OCCOc1ccc(F)cc1` (stereo not drawn) it was -30.3%.
The figure for `Cc1ccc(-n2ncc3c2CC(C)(C)CC3NC(=O)CCc2cccnc2)cc1` (stereo not drawn) is -63.9%; for `O=C1c2ccccc2C(=O)N1c1ccc(Br)c2cccnc12` it is 19.9%.
In the case of `O=C(c1cccc(Cl)c1)N1CCN(Cc2ccccc2)CC1` it was -8.35%; in that of `Cc1c(Cl)c([N+](=O)[O-])nn1CC(=O)N1CCCC1`, -4.86%.
For the molecule `CC(Sc1ccccc1)C(=O)Nc1cccc(N(C)S(C)(=O)=O)c1` (stereo not drawn), the “hERG current change (%, negative = inhibition) at 10uM” value turned out to be 12.9%.
With `CCCCCCCCNC(=O)/C(C#N)=C/c1ccccc1[N+](=O)[O-]`, the “hERG current change (%, negative = inhibition) at 10uM” value was -7.82%.
For the molecule `CCOC(=O)C1=C(O)CSC1=Nc1cccc2ccccc12`, the “hERG current change (%, negative = inhibition) at 10uM” value is on record as 1.88%.
In the case of `COCCNC(=O)C(OC(=O)c1ccco1)c1ccccc1Cl` (stereo not drawn) it was 15.3%; in that of `CCCCN(CCCNC(=O)c1ccc(CS(=O)(=O)c2ccc(OC)cc2)o1)Cc1ccccc1`, -67.4%; in that of `N=c1c(C(=O)NCC2CCCO2)cc2c(=O)n3ccccc3nc2n1C1CCCC1` (stereo not drawn), -76.9%.
Take `COC(=O)c1cccc(NC(=O)c2ccc3c(c2)C(=O)N(C(C)(C)C)C3=O)c1`: the “hERG current change (%, negative = inhibition) at 10uM” value amounted to 24.4%.
Turning to `CCOC(=O)c1ccc(NC(=O)c2ccc3c(c2)C(=O)N(CC2CCCO2)C3=O)cc1` (stereo not drawn), the “hERG current change (%, negative = inhibition) at 10uM” value is given as -1.87%.
The figure for `CN1CCN(c2ccc(Nc3ccnc4cc(Cl)ccc34)cc2)CC1` is -28.9%; for `CC(=O)N1C(=S)NC(=O)/C1=C1/C(=O)N(CC(=O)Nc2cccc(C)c2)c2ccccc21` it is 14.6%.
The figure for `Cc1nc(C(=O)N2CCCC(C(=O)c3cccc(OC(C)C)c3)C2)cs1` (stereo not drawn) is -4.61%.
With `Cc1cc(C)nc(SCC(=O)c2ccc(C)c(C)c2)n1`, the “hERG current change (%, negative = inhibition) at 10uM” value is on record as 1.66%.
For `Cc1c(-c2ncn[nH]2)sc(C#N)c1-c1ccccc1`, the “hERG current change (%, negative = inhibition) at 10uM” value amounted to 2.45%.
As for `Cc1nn(C(C)C(=O)NCCCN2CCCCC2C)c(=O)c2c1sc1ccccc12` (stereo not drawn), the “hERG current change (%, negative = inhibition) at 10uM” value is given as -5.22%.
In the case of `O=c1c2ccccc2nc(/C=C/c2ccccc2)n1-c1ccc(O)cc1` it was 13.8%.
In the case of `Cc1ccsc1/C=N/NC(=O)c1cccnc1` it was 10.8%; in that of `CCC1=C(OC(=O)N(CC)CC)N2C(=O)OC(=NCC(=O)OC)[C@]2(Cc2ccccc2)[C@H]2C1=CC[C@H]1C(=O)N(C)C(=O)[C@H]12`, 2.27%.
On to `COCCN1C(=O)C(CC(=O)Nc2ccc(C(=O)O)cc2)SC1=Nc1ccccc1` (stereo not drawn), for which the “hERG current change (%, negative = inhibition) at 10uM” value came out at 11.6%.
The figure for `O=C(NCCC1CCCC1)C1CCC(=O)N(CCCN2CCCC2=O)C1` (stereo not drawn) is 20.3%.
Take `Cc1ccc(C=Nc2ccccc2C#N)s1`: the “hERG current change (%, negative = inhibition) at 10uM” value is on record as -7.7%.
The figure for `O=C(NCC1CCCO1)c1ccc(CNS(=O)(=O)c2ccc(F)c(Cl)c2)cc1` (stereo not drawn) is 0.715%.
The figure for `CCc1ccc(NC(=O)C2C3C=CC(C4CC34)C2C(=O)O)cc1` (stereo not drawn) is -4.43%; for `CC#CCCCC(=O)Nc1ccccc1C(=O)O` it is -3.63%; for `Cc1csc(NS(=O)(=O)c2cccc([N+](=O)[O-])c2)n1` it is 12.3%.
Regarding `O=C(CSc1nnc(COc2ccc(Cl)cc2Cl)o1)Nc1ccccn1`, the “hERG current change (%, negative = inhibition) at 10uM” value amounted to 12.3%.
In the case of `O=C(NNC1=C(C(=O)C(F)(F)F)CCC1)c1ccccc1Cl` it was 13%.
In the case of `CC(C)C(=O)Nc1ccc(C(=O)NN2C(=O)c3ccccc3C2=O)cc1` it was 9.54%.
Take `COc1cccc2cc(C(=O)N(C)C3CCN(C)CC3)c(=O)oc12.Cl`: the “hERG current change (%, negative = inhibition) at 10uM” value stood at 6.91%.
Turning to `COC(=O)CCCC1=CC2=CC(=O)C(C)(OC(=O)c3cccs3)C(=O)C2=CN1Cc1ccco1` (stereo not drawn), the “hERG current change (%, negative = inhibition) at 10uM” value is on record as -8.14%.
In the case of `O=C(O)C1(NS(=O)(=O)c2ccc(Cl)cc2)CCCCC1` it was -1.51%; in that of `COc1ccc(CCNC(=O)c2ccc(Cl)cc2Cl)cc1`, 2.26%; in that of `CCN(CC(=O)Nc1ccc(OC)cc1)C(=O)c1ccc(N2C(=O)CCC2=O)cc1`, 2.82%.
`O=C(c1cc(Br)ccc1Cl)N1CCN(c2ncccn2)CC1`: the “hERG current change (%, negative = inhibition) at 10uM” value is given as -12.8%.
In the case of `CN1CCC(N(C)CC(=O)Nc2ccccc2N2CCOCC2)CC1.O=C(O)C(=O)O` it was -13.8%.
In the case of `OC1CCCN(C(=S)Nc2ccc(SC(F)F)cc2)C1` (stereo not drawn), the “hERG current change (%, negative = inhibition) at 10uM” value was -9.96%.
As to `Cc1cccc(NC(=O)CSc2nnc(-c3ccco3)o2)c1C`, the “hERG current change (%, negative = inhibition) at 10uM” value is -4.42%.
In the case of `CCOc1ccc(C(=O)Nc2ccc(NC(=O)c3ccccc3)cc2)cc1Br`, the “hERG current change (%, negative = inhibition) at 10uM” value was determined as 9.48%.
In the case of `CCn1cc(C(=O)NCCC(C)C)c(=O)c2cc(F)c(N3CCN(C(=O)c4ccco4)CC3)cc21` it was -11.3%.
